Results on 23 molecules are retold here after ChEMBL document CHEMBL5606460, “ASAP - DENV-2 NS2B-NS3 protease fluorescence single point” (2024).

Hit rate of the full screen: of about 2,000 compounds, about 110 (5.5%) showed an effect of 50% or more. The list shows a part of the results.

The target of this experiment is Genome polyprotein (dengue virus type 2) (UniProt P29990).
Where [1] appears, read: Thailand/16681/1984, Concentration 25.0 uM, Number of replicates 1.0.

For `CC(C)(C)N(Cc1ccc(Br)cc1)C(=O)C1CCN(c2ccc(C=O)cc2)CC1`, the inhibition under setting [1] turned out to be 16.6%. `O=Cc1ccc(N2CCC(C(=O)Nc3ccc(I)cc3F)CC2)cc1`: the inhibition under setting [1] was 10.5%. On to `Cc1cc(CO)c2cccc(C[C@H](NC(=O)c3nc(C4CCNCC4)oc3C)C(=O)O)c2n1`, for which the inhibition turned out to be 2.79% (Thailand/16681/1984, Concentration 49.95 uM, Number of replicates 2.0, Standard deviation 0.8080216779744858 %) and 10% (Thailand/16681/1984, Concentration 99.9 uM, Number of replicates 2.0, Standard deviation 0.4573836691864076 %). In the case of `Cc1cnccc1NC(=O)c1ccc(Cn2cccn2)o1`, the inhibition reads like this: (Thailand/16681/1984, Concentration 49.5 uM, Number of replicates 2.0, Standard deviation 4.385944523915964 %) -2.69%; (Thailand/16681/1984, Concentration 99.01 uM, Number of replicates 2.0, Standard deviation 4.977047473031105 %) -3.61%; (Thailand/16681/1984, Concentration 198.0 uM, Number of replicates 2.0, Standard deviation 5.602921119089111 %) -2.76%. As to `c1ccc2c(CN3CCC(c4cnco4)CC3)c[nH]c2c1`, the inhibition (Thailand/16681/1984, Concentration 49.5 uM, Number of replicates 2.0, Standard deviation 0.40536805180299074 %) was -4.68%; the inhibition (Thailand/16681/1984, Concentration 99.01 uM, Number of replicates 2.0, Standard deviation 1.6192470221979818 %) is -4.3%; the inhibition (Thailand/16681/1984, Concentration 198.0 uM, Number of replicates 2.0, Standard deviation 0.5019264817414489 %) was -3.3%. For `O=Cc1ccc(N2CCC(C(=O)N3CCc4ccc([N+](=O)[O-])cc4C3)CC2)cc1`, the inhibition under setting [1] turned out to be 16.6%. Turning to `Cc1cc(CO)c2cccc(Cc3ccccc3NC(=O)c3nc(-c4ccccc4)oc3C(F)(F)F)c2n1`, the inhibition (Thailand/16681/1984, Concentration 49.95 uM, Number of replicates 2.0, Standard deviation 1.7717479756893137 %) amounted to 4.23% and the inhibition (Thailand/16681/1984, Concentration 99.9 uM, Number of replicates 2.0, Standard deviation 1.406874278760802 %) came out at 8.66%. Take `CNC(=O)c1ccc2n1CCN(S(=O)(=O)c1cnn(CC3CC3)c1)[C@@H]2C`: the inhibition runs as follows: (Thailand/16681/1984, Concentration 49.5 uM, Number of replicates 2.0, Standard deviation 0.5811994670445131 %) -0.194%; (Thailand/16681/1984, Concentration 99.01 uM, Number of replicates 2.0, Standard deviation 0.831933566036596 %) -0.495%; (Thailand/16681/1984, Concentration 198.0 uM, Number of replicates 2.0, Standard deviation 1.0454246971724366 %) -1.2%. Consider `O=Cc1ccc(N2CCC(C(=O)N3CCN(C(=O)[C@H]4COc5ccccc5O4)CC3)CC2)cc1`, for which, under setting [1], the inhibition was 13%.

`COc1ccc(NC(C)=O)cc1NC(=O)C1CCN(c2ccc(C=O)cc2)CC1`: under setting [1], the inhibition amounted to 14.3%. In the case of `Cc1cc(CO)c2cccc(C[C@H](NC(=O)Cc3c[nH]c4ccccc34)C(=O)O)c2n1`, the inhibition reads like this: (Thailand/16681/1984, Concentration 49.95 uM, Number of replicates 2.0, Standard deviation 0.094584440141602 %) 2.82%; (Thailand/16681/1984, Concentration 99.9 uM, Number of replicates 2.0, Standard deviation 1.2728368480777283 %) 10.9%. Regarding `N#Cc1cccc(-c2nc3c(C(=O)NCc4ccccc4)cc(Cl)cc3[nH]2)c1`, the inhibition is -4.99% (Thailand/16681/1984, Concentration 99.5 uM, Number of replicates 2.0, Standard deviation 0.16663009439873022 %) and 8.64% (Thailand/16681/1984, Concentration 295.6 uM, Number of replicates 2.0, Standard deviation 26.28702583112172 %).

With `CCCC[C@@H](NC(=O)OC(C)(C)C)C(=O)N[C@@H](C(=O)NCc1ccc(CN)cc1)c1ccc(OCc2ccccc2)cc1`, the inhibition by setting is: (Thailand/16681/1984, Concentration 49.5 uM, Number of replicates 2.0, Standard deviation 1.8529777654117539 %) 94%; (Thailand/16681/1984, Concentration 99.01 uM, Number of replicates 2.0, Standard deviation 0.005880328304239935 %) 100%; (Thailand/16681/1984, Concentration 198.0 uM, Number of replicates 2.0, Standard deviation 0.014706215557209234 %) 99.9%.

Take `Cc1nn(CC(=O)N[C@H]2CCS(=O)(=O)C2)cc1C1CCNCC1`: the inhibition by setting is: (Thailand/16681/1984, Concentration 49.5 uM, Number of replicates 2.0, Standard deviation 0.9549826811101519 %) -3.17%; (Thailand/16681/1984, Concentration 99.01 uM, Number of replicates 2.0, Standard deviation 1.2465770012319246 %) -2.73%; (Thailand/16681/1984, Concentration 198.0 uM, Number of replicates 2.0, Standard deviation 0.2948392902823235 %) -1.46%. As for `CN(C)c1ccccc1CNC(=O)C1CCN(c2ccc(C=O)cc2)CC1`, the inhibition under setting [1] was found to be 13.8%.

For `CCOc1ccc(N2CCN(C(=O)C3CCN(c4ccc(C=O)cc4)CC3)CC2)cc1`, the inhibition under setting [1] stood at 12.1%.

Consider `CCCCCC(=O)N[C@H](C(=O)NCc1ccc(NC(=N)N)cc1)c1ccc(OCc2ccccc2)cc1`, for which the inhibition by setting is: (Thailand/16681/1984, Concentration 49.5 uM, Number of replicates 2.0, Standard deviation 0.35669280924008506 %) 0.374%; (Thailand/16681/1984, Concentration 99.01 uM, Number of replicates 2.0, Standard deviation 0.1951319007042223 %) 2.1%; (Thailand/16681/1984, Concentration 198.0 uM, Number of replicates 2.0, Standard deviation 2.320076788942105 %) 11.9%. As to `CCN(Cc1ccc(C(F)(F)F)cc1)C(=O)C1CCN(c2ccc(C=O)cc2)CC1`, the inhibition under setting [1] was found to be 12.1%. On the same count and under the same terms, the same measure for `O=Cc1ccc(N2CCC(C(=O)N3CCN(Cc4cc(F)ccc4F)CC3)CC2)cc1`: 10.9%. For `c1ccc2c(CN3CCC(c4c[nH]c5cccnc45)CC3)c[nH]c2c1`, the inhibition is, setting by setting: (Thailand/16681/1984, Concentration 49.5 uM, Number of replicates 2.0, Standard deviation 0.05605868026736993 %) 2.08%; (Thailand/16681/1984, Concentration 99.01 uM, Number of replicates 2.0, Standard deviation 0.054425742768663854 %) 4.27%; (Thailand/16681/1984, Concentration 198.0 uM, Number of replicates 2.0, Standard deviation 0.20137561913632315 %) 9.4%. Regarding `O=Cc1ccc(N2CCC(C(=O)Nc3ccc(F)cc3C(F)(F)F)CC2)cc1`, the inhibition under setting [1] was 12.5%. Same read-out and setting: the same measure for `CN(CCC=C1c2ccccc2CCc2ccccc21)C(=O)C1CCN(c2ccc(C=O)cc2)CC1`: -6.79%. Turning to `Cc1cc(CO)c2cccc(Cc3cccc(NC(=O)c4cnn(Cc5c(C)noc5C)c4)c3)c2n1`, the inhibition by setting is: (Thailand/16681/1984, Concentration 49.95 uM, Number of replicates 2.0, Standard deviation 1.4870028556253494 %) -3.7%; (Thailand/16681/1984, Concentration 99.9 uM, Number of replicates 2.0, Standard deviation 1.816697484259061 %) -0.8%.

Usually inhibition stands for the drop in the measured response relative to a control, in per cent.
